Measured values taken from paper PMC6919601, “Identification of Plasmodium dipeptidyl aminopeptidase allosteric inhibitors by high throughput screening” (PLoS ONE, 2019).
The campaign covered roughly 110,000 compounds. About 230 (0.21%) showed an effect of 50% or more. The list shows a part of the results.

Target: DPAP1 (Plasmodium falciparum, UniProt Q8IIJ9)
Test: primary screen, percent inhibition; read by cleavage of a fluorogenic dipeptide substrate; higher = more effect of the substance
Parameters: species or system P. falciparum D10 trophozoite lysates; single well
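Note: 30 min substrate incubation versus DMSO and 10 µM JCP410 controls.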

Sequence of DPAP1 (Q8IIJ9 whole entry, looked up): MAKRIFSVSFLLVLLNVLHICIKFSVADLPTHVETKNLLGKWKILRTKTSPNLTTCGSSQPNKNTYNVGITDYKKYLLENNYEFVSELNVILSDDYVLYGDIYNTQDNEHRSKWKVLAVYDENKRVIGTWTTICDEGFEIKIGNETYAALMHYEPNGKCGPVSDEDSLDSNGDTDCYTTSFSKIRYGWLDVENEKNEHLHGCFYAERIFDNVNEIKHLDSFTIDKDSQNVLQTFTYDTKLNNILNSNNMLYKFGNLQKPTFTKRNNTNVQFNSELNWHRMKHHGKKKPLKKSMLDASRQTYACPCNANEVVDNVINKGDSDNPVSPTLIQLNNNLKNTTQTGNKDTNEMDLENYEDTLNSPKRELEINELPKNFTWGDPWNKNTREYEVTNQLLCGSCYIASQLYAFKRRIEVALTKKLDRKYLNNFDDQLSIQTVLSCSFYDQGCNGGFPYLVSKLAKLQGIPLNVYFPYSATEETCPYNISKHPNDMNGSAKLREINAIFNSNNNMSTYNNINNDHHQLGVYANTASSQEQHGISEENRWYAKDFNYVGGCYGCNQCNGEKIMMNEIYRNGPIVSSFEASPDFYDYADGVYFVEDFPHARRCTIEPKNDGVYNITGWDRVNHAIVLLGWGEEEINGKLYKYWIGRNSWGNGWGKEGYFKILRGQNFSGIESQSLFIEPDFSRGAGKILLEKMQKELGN

Row | SMILES | % Inhibition @ 10 uM [%]
1 | Oc1nc2cccnc2n1-c1ccccc1 | 6.15
2 | CC(=O)NC1C(=O)N(C)N=C1c1ccccc1 (stereo not drawn) | 14.5
3 | COc1cccc(-c2noc(-c3cc4cccc(OC)c4oc3=O)n2)c1OC | 6.05
4 | CCOc1ccc2oc(=O)cc(CSc3nc4cccnc4[nH]3)c2c1 | 6.3
5 | Cc1ccccc1-n1cc2c(c1-c1ccccc1Cl)c(=O)n(C)c(=O)n2C | -3.12
6 | Cc1ccc(NC2=NC(=O)CC(C(=O)Nc3ccc(F)c(Cl)c3)S2)cc1 (stereo not drawn) | -10
7 | CC1CCC(C(=O)NC(Cc2ccccc2)C(=O)NCc2cccnc2)CC1 (stereo not drawn) | -9.05
8 | CC(C)C[C@H](NC(=O)N1CCC(N2CCCCC2)CC1)C(=O)N[C@@H](CCc1ccccc1)CNS(=O)(=O)c1ccc2ccccc2c1 | -3.97
9 | CC(=O)C1=C(O)C(=O)N(CCc2ccccc2)C1c1ccc(C(C)C)cc1 (stereo not drawn) | -4.97
10 | O=C1C2C3CCC(C3)C2C(=O)N1c1cccc(Cl)c1Cl (stereo not drawn) | -12.7
11 | Cc1nn(Cc2ccccc2Cl)c(C)c1NC(=O)C(F)(F)F | 4.98
12 | COc1ccc(-c2cc(C(F)F)n3ncc(C(=O)Nc4cccnc4Cl)c3n2)cc1 | -6.79
13 | CC1=C(C#N)C(C(F)(F)F)(C(F)(F)F)NC(c2ccco2)=N1 | -7.35
14 | COc1ccccc1N1CCN(C(=O)CN(c2cccc(Cl)c2Cl)S(C)(=O)=O)CC1 | -3.65
15 | Cc1ccc(Cl)cc1-n1ncc2c(NCCCOC(C)C)ncnc21 | 5.23
16 | CCOc1ccc(C2CC(c3cc(Br)ccc3F)n3ncnc3N2)cc1Cl (stereo not drawn) | 3.32
17 | CCOc1ccccc1CNCCSc1nnnn1-c1ccccc1 | 0.596
18 | Cc1ccc(-c2ccc(Oc3ccc(C#N)c(C#N)c3)c(C)c2)cc1 | -3.16
19 | CCN(CC)C(=O)c1ccccc1NC(=O)CN1C(=O)c2ccccc2C1=O | 6.51
20 | COc1c(Br)cc(/C=C2/SC(=O)NC2=O)cc1Br | 1.58
21 | CC1CN=C(/C=C(\O)c2ccc(Cl)cc2)C(=O)N1 (stereo not drawn) | 4.09
22 | Cc1cc(-c2ccccc2)n(-c2nnc(S)n2N)n1 | -0.85

Row | SMILES | % Inhibition @ 10 uM [%]
23 | COc1ccc(CNC(=O)c2cnn(-c3ccc(F)cc3)c2-n2cccc2)cc1OC | -0.742
24 | CCOc1ccccc1CNc1cccc(Cl)c1C | -2.95
25 | Cc1ccc(-n2nnc3c(=O)n(Cc4cccc(F)c4)cnc32)cc1 | 1.24
26 | COC1=C(OC)C2(C=CC1=O)CC(C)(C)N=C2SC (stereo not drawn) | -5.38
27 | Cc1cccc(N2CCN(Cc3ccccc3[N+](=O)[O-])CC2)c1C | -3.56
28 | Cc1nn(Cc2noc(C(N)=O)n2)c(C)c1Br | -2.28
29 | C=CCn1c(CCNC(=O)c2ccco2)nc2ccccc21 | 3.62
30 | CCCCNC(=O)c1cc2cc3ccc(OC)cc3nc2o1 | 1.9
31 | COC(=O)C1=CN(CC2CCCO2)C=C(C(=O)OC)C1c1cccc(OC)c1OC (stereo not drawn) | -7.18
32 | CN(C)c1c(Cl)cnn(-c2ccccc2)c1=O | -4.4
33 | Cc1cc(C)c(S(=O)(=O)NCCCO)c(C)c1 | 4.82
34 | Cc1nn(-c2ccc(C(=O)O)cc2)c(N)c1-c1ccccc1 | 3.38
35 | Cc1cccc(OCC(=O)N2CCCc3ccccc32)c1 | -0.173
36 | Cn1c(=O)c2sccc2n2c(CCCC(=O)NCCc3ccccc3)nnc12 | 3.47
37 | Cc1ccc(C)c(OCC(=O)Nc2ccccc2C)c1 | -1.57
38 | CCCC(=O)Nc1sc2c(c1C#N)CCCCCC2 | 5.54
39 | CCOC(=O)c1c(NC(=O)c2cc3ccccc3cc2OC)sc(C)c1C | 10.5
40 | C/C=C/C(=O)Nc1ccccc1OC | -1.92
41 | COc1ccc2cc(C3CC(c4cccs4)=NN3C(C)=O)c(Cl)nc2c1 (stereo not drawn) | -12.3
42 | CCOC(=O)N1CCN(Cc2ccccc2Cl)CC1 | -0.0494
43 | CCOC(=O)Cc1c(C)c2ccc(N(CC)CC)cc2oc1=O | -5.48
44 | Cc1nc2c(c(C)c1CCC(=O)NCC1CCN(C3CCCC3)C1)c(=O)n(C)c(=O)n2C (stereo not drawn) | -6.91

Row | SMILES | % Inhibition @ 10 uM [%]
45 | O=C(O)c1cc(-c2ccc(O)cc2)nc2ccccc12 | 3.48
46 | COc1ccc2c(C)c(CCC(=O)NCc3ccco3)c(=O)oc2c1 | 2.54
47 | CCn1cc(C2C(C#N)=C(N)Oc3ccc4ccccc4c32)cn1 (stereo not drawn) | 4.31
48 | CCn1c(NCc2ccc(C(F)(F)F)cc2)nc2ccccc21 | -1.74
49 | Cc1ccc(NC(=O)c2cnn(C)c2C)c(Br)c1 | 1.86
50 | COc1cc(C2C3=C(O)CC(c4ccccc4)CC3=NC(C)=C2C(=O)Nc2ccccc2F)ccc1O (stereo not drawn) | -2.68
51 | O=C(c1ccco1)N1CCN(c2ncnc3c2oc2ccccc23)CC1 | -1.72
52 | O=C1c2ccccc2C(=O)N1CCc1nc(S)n[nH]1 | 11.2
53 | O=C(CSCc1cnn(-c2ccccc2)c1-n1cccc1)NCCc1ccccc1 | -2.85
54 | CN(C)c1ccc(C(=O)Nc2ccc(Cl)cn2)cc1 | 4.76
55 | Cc1ccc(C2=NNC(c3cccc(F)c3)S2)cc1 (stereo not drawn) | 2
56 | O=C1C2C3C=CC(C2C(=O)N1Cc1cccnc1)C1C(=O)N(Cc2cccnc2)C(=O)C31 (stereo not drawn) | -3.19
57 | COc1ccc2c(c1)CCc1c(C(=O)NCc3ccc(Cl)cc3)noc1-2 | -7.85
58 | CCc1nnc(NC(=O)c2c(C)nn(-c3ccc(C)cc3)c2-n2cccc2)s1 | -3.54
59 | Cc1ccc(Cl)cc1NC(=O)c1c(-c2ccccc2)noc1C | -1.65
60 | COc1cc(CNC(C)(C)CO)cc(Br)c1OCc1ccc(F)cc1 | 10.5
61 | CCCC(=O)N1CCc2cc(OC)c(OC)cc2C1COc1ccc(F)cc1 (stereo not drawn) | -2.84
62 | COC(=O)c1cc(S(=O)(=O)NCc2ccc(OC(C)C)cc2)cn1C | 5.56
63 | COc1ccc(CN2CCc3c([nH]c4ccccc34)C2)cc1C | -2
64 | Cc1ccc(C(=O)Sc2nnnn2-c2ccccc2)cc1 | 29.4
65 | CC(=O)N(CC(C)(C)CC=C(C)C)c1ccccc1 | 1.34
66 | COc1cc2c(cc1OC)CN(Cc1ccc(Cl)cc1Cl)CC2 | -1.98
